{"source": "the supplement of paper PMC8728848", "binders": {"B1": {"name": "ABA (Agaricus bisporus), Q00022 (protein)", "chain": "MTYTISIRVYQTTPKGFFRPVERTNWKYANGGTWDEVRGEYVLTMGGSGTSGSLRFVSSDTDESFVATFGVHNYKRWCDIVTNLTNEQTALVINQEYYGVPIRDQARENQLTSYNVANAKGRRFAIEYTVTEGDNLKANLIIG"}}, "assay_in_all_cases": "glycan array binding signal (z-score within array); higher = stronger binding", "conditions_in_all_cases": "glycan notation: IUPAC condensed, linker removed", "key": {"[1]": {"biological_target": "Fuc(a1-2)Gal(b1-4)GlcNAc(b1-3)Gal(b1-4)GlcNAc(b1-2)Man(a1-3)[Fuc(a1-2)Gal(b1-4)GlcNAc(b1-3)Gal(b1-4)GlcNAc(b1-2)Man(a1-6)]Man(b1-4)GlcNAc(b1-4)GlcNAc", "procedure,_shortened": "(§1)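 The binding signal is a Z-score computed within each array and averaged over linkers. Arrays of the same protein sequence at different concentrations or buffers were also averaged together. Data originate from 3228 arrays in the Consortium for Functional Glycomics database, kept only where the protein sequence was available.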"}, "[2]": {"biological_target": "Fuc(a1-2)Gal(b1-4)GlcNAc(b1-3)Gal(b1-4)GlcNAc(b1-3)Gal(b1-4)GlcNAc", "procedure,_shortened": "as §1"}, "[3]": {"biological_target": "Fuc(a1-2)Gal(b1-4)GlcNAc(b1-3)GalNAc", "procedure,_shortened": "as §1"}, "[4]": {"biological_target": "Fuc(a1-2)Gal(b1-4)GlcNAc(b1-3)[Fuc(a1-2)Gal(b1-4)GlcNAc(b1-6)]GalNAc", "procedure,_shortened": "as §1"}, "[5]": {"biological_target": "Fuc(a1-2)Gal(b1-4)GlcNAc(b1-3)[Fuc(a1-3)[Gal(b1-4)]GlcNAc(b1-6)]Gal(b1-4)Glc", "procedure,_shortened": "as §1"}, "[6]": {"biological_target": "Fuc(a1-2)Gal(b1-4)GlcNAc(b1-6)GalNAc", "procedure,_shortened": "as §1"}, "[7]": {"biological_target": "Fuc(a1-2)Gal(b1-4)GlcNAc6S", "procedure,_shortened": "as §1"}, "[8]": {"biological_target": "Fuc(a1-2)Gal(b1-4)[Fuc(a1-3)]GlcNAc", "procedure,_shortened": "as §1"}, "[9]": {"biological_target": "Fuc(a1-2)Gal(b1-4)[Fuc(a1-3)]GlcNAc(b1-2)Man(a1-3)[Fuc(a1-2)Gal(b1-4)[Fuc(a1-3)]GlcNAc(b1-2)Man(a1-6)]Man(b1-4)GlcNAc(b1-4)[Fuc(a1-6)]GlcNAc", "procedure,_shortened": "as §1"}, "[10]": {"biological_target": "Fuc(a1-2)Gal(b1-4)[Fuc(a1-3)]GlcNAc(b1-2)[Fuc(a1-2)Gal(b1-4)[Fuc(a1-3)]GlcNAc(b1-4)]Man(a1-3)[Fuc(a1-2)Gal(b1-4)[Fuc(a1-3)]GlcNAc(b1-2)Man(a1-6)]Man(b1-4)GlcNAc(b1-4)GlcNAc", "procedure,_shortened": "as §1"}, "[11]": {"biological_target": "Fuc(a1-2)Gal(b1-4)[Fuc(a1-3)]GlcNAc(b1-3)Gal(b1-4)[Fuc(a1-3)]GlcNAc", "procedure,_shortened": "as §1"}, "[12]": {"biological_target": "Fuc(a1-2)Gal(b1-4)[Fuc(a1-3)]GlcNAc(b1-3)Gal(b1-4)[Fuc(a1-3)]GlcNAc(b1-3)Gal(b1-4)[Fuc(a1-3)]GlcNAc", "procedure,_shortened": "as §1"}, "[13]": {"biological_target": "Fuc(a1-2)Gal(b1-4)[Fuc(a1-3)]GlcNAc(b1-3)GalNAc", "procedure,_shortened": "as §1"}, "[14]": {"biological_target": "Fuc(a1-2)Gal(b1-4)[Fuc(a1-3)]GlcNAc(b1-3)[Neu5Ac(a2-6)Gal(b1-4)GlcNAc(b1-6)]Gal(b1-4)Glc", "procedure,_shortened": "as §1"}, "[15]": {"biological_target": "Fuc(a1-2)Gal3S(b1-4)GlcNAc", "procedure,_shortened": "as §1"}, "[16]": {"biological_target": "Fuc(a1-2)Gal6S(b1-3)GlcNAc", "procedure,_shortened": "as §1"}, "[17]": {"biological_target": "Fuc(a1-2)Gal6S(b1-3)GlcNAc6S", "procedure,_shortened": "as §1"}, "Fuc(a1-2)Gal6S(b1-4)Glc": {"biological_target": "Fuc(a1-2)Gal6S(b1-4)Glc", "procedure,_shortened": "as §1"}, "[18]": {"biological_target": "Fuc(a1-2)Gal6S(b1-4)Glc6S", "procedure,_shortened": "as §1"}, "Fuc(a1-2)GlcNAc": {"biological_target": "Fuc(a1-2)GlcNAc", "procedure,_shortened": "as §1"}, "Fuc(a1-2)[Gal(a1-3)]Gal": {"biological_target": "Fuc(a1-2)[Gal(a1-3)]Gal", "procedure,_shortened": "as §1"}, "[19]": {"biological_target": "Fuc(a1-2)[Gal(a1-3)]Gal(b1-3)GalNAc", "procedure,_shortened": "as §1"}, "[20]": {"biological_target": "Fuc(a1-2)[Gal(a1-3)]Gal(b1-3)GalNAc(b1-3)Gal(a1-4)Gal(b1-4)Glc", "procedure,_shortened": "as §1"}, "[21]": {"biological_target": "Fuc(a1-2)[Gal(a1-3)]Gal(b1-3)GlcNAc", "procedure,_shortened": "as §1"}, "[22]": {"biological_target": "Fuc(a1-2)[Gal(a1-3)]Gal(b1-3)GlcNAc(b1-2)Man(a1-3)[Fuc(a1-2)[Gal(a1-3)]Gal(b1-3)GlcNAc(b1-2)Man(a1-6)]Man(b1-4)GlcNAc(b1-4)GlcNAc", "procedure,_shortened": "as §1"}, "[23]": {"biological_target": "Fuc(a1-2)[Gal(a1-3)]Gal(b1-3)GlcNAc(b1-2)Man(a1-3)[Fuc(a1-2)[Gal(a1-3)]Gal(b1-3)GlcNAc(b1-2)Man(a1-6)]Man(b1-4)GlcNAc(b1-4)[Fuc(a1-6)]GlcNAc", "procedure,_shortened": "as §1"}, "[24]": {"biological_target": "Fuc(a1-2)[Gal(a1-3)]Gal(b1-3)GlcNAc(b1-3)GalNAc", "procedure,_shortened": "as §1"}, "[25]": {"biological_target": "Fuc(a1-2)[Gal(a1-3)]Gal(b1-3)GlcNAc(b1-6)GalNAc", "procedure,_shortened": "as §1"}, "[26]": {"biological_target": "Fuc(a1-2)[Gal(a1-3)]Gal(b1-4)Glc", "procedure,_shortened": "as §1"}, "[27]": {"biological_target": "Fuc(a1-2)[Gal(a1-3)]Gal(b1-4)GlcNAc", "procedure,_shortened": "as §1"}}, "note": "The list shows a part of the results.", "data": [{"binder": "B1", "values": [{"measurement": "glycan array binding signal (z-score)", "setting": "[1]", "result": -0.157}, {"measurement": "glycan array binding signal (z-score)", "setting": "[2]", "result": -0.211}, {"measurement": "glycan array binding signal (z-score)", "setting": "[3]", "result": -0.137}, {"measurement": "glycan array binding signal (z-score)", "setting": "[4]", "result": -0.179}, {"measurement": "glycan array binding signal (z-score)", "setting": "[5]", "result": -0.233}, {"measurement": "glycan array binding signal (z-score)", "setting": "[6]", "result": -0.156}, {"measurement": "glycan array binding signal (z-score)", "setting": "[7]", "result": -0.289}, {"measurement": "glycan array binding signal (z-score)", "setting": "[8]", "result": -0.203}, {"measurement": "glycan array binding signal (z-score)", "setting": "[9]", "result": -0.137}, {"measurement": "glycan array binding signal (z-score)", "setting": "[10]", "result": 0.231}, {"measurement": "glycan array binding signal (z-score)", "setting": "[11]", "result": -0.248}, {"measurement": "glycan array binding signal (z-score)", "setting": "[12]", "result": -0.17}, {"measurement": "glycan array binding signal (z-score)", "setting": "[13]", "result": -0.202}, {"measurement": "glycan array binding signal (z-score)", "setting": "[14]", "result": -0.228}, {"measurement": "glycan array binding signal (z-score)", "setting": "[15]", "result": -0.269}, {"measurement": "glycan array binding signal (z-score)", "setting": "[16]", "result": -0.261}, {"measurement": "glycan array binding signal (z-score)", "setting": "[17]", "result": -0.092}, {"measurement": "glycan array binding signal (z-score)", "setting": "Fuc(a1-2)Gal6S(b1-4)Glc", "result": -0.214}, {"measurement": "glycan array binding signal (z-score)", "setting": "[18]", "result": -0.227}, {"measurement": "glycan array binding signal (z-score)", "setting": "Fuc(a1-2)GlcNAc", "result": -0.152}, {"measurement": "glycan array binding signal (z-score)", "setting": "Fuc(a1-2)[Gal(a1-3)]Gal", "result": -0.223}, {"measurement": "glycan array binding signal (z-score)", "setting": "[19]", "result": -0.239}, {"measurement": "glycan array binding signal (z-score)", "setting": "[20]", "result": -0.235}, {"measurement": "glycan array binding signal (z-score)", "setting": "[21]", "result": -0.018}, {"measurement": "glycan array binding signal (z-score)", "setting": "[22]", "result": -0.265}, {"measurement": "glycan array binding signal (z-score)", "setting": "[23]", "result": 0.005}, {"measurement": "glycan array binding signal (z-score)", "setting": "[24]", "result": -0.212}, {"measurement": "glycan array binding signal (z-score)", "setting": "[25]", "result": -0.221}, {"measurement": "glycan array binding signal (z-score)", "setting": "[26]", "result": -0.122}, {"measurement": "glycan array binding signal (z-score)", "setting": "[27]", "result": -0.22}]}]}
